Out of some 310,000 compounds screened, about 14,000 (4.5%) showed an effect of 50% or more. The effect is printed as a negative number. The list shows a part of the results.
molecular target: human ether-à-go-go-related gene (hERG) potassium channel (human, UniProt Q12809); test: primary screen, population patch clamp on CHO cells stably expressing hERG
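Also: peak tail current of the secondary pulse compared with the same well before compound.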

Chain of human ether-à-go-go-related gene (hERG) potassium channel (Q12809 whole entry, looked up): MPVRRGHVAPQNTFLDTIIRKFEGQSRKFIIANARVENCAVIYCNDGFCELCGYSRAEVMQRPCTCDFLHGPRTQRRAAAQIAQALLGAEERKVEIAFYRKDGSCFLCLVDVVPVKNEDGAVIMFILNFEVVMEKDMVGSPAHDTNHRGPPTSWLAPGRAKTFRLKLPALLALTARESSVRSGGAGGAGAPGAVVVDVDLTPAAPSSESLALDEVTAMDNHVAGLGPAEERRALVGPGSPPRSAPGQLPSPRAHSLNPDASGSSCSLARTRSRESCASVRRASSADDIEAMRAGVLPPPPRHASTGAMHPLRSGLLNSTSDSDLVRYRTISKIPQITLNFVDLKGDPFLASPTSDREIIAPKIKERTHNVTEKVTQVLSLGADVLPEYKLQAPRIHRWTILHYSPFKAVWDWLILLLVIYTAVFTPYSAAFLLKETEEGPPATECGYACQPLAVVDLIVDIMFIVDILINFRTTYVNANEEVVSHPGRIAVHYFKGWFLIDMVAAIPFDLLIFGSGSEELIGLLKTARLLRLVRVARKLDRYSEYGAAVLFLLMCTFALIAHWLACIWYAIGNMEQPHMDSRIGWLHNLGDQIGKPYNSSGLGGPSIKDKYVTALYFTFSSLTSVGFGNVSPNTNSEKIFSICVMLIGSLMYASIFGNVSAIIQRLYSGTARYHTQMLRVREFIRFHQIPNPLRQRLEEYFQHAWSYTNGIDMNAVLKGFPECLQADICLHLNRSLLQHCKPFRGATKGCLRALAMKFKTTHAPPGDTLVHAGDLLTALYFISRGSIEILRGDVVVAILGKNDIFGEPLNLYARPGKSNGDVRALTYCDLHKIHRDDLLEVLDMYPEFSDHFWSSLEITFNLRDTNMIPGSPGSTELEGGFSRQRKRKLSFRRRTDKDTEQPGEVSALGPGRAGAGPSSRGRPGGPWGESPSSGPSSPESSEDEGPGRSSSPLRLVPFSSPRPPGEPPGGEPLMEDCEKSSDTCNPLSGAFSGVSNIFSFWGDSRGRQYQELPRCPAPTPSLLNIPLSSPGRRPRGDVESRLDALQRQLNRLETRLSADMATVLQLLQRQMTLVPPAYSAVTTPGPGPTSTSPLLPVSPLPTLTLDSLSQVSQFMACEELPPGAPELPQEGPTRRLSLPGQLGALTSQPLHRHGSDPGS

SMILES	hERG current change (%, negative = inhibition) at 10uM [%]
CCNC(=S)NNC(=O)c1cccnc1	15.7
O=C(NC1CCCCC1)c1ccc(S(=O)(=O)N2CCOCC2)cc1	-2.69
c1ccc(Nc2nc(-c3ccncc3)cs2)cc1	1.34
O=C(O)c1cccc(-c2ccc(/C=N/NC(=O)c3cccnc3)o2)c1	-3.81
CCN(CCCNC(=O)CCn1c(=O)[nH]c2ccsc2c1=O)c1ccccc1	4.54
CCCCNC(=O)CCCCCn1c(=O)[nH]c2cc(OC)c(OC)cc2c1=O	2.05
Cc1ccccc1-c1nc(CN2CCC(C(=O)NCc3cccnc3)CC2)c(C)o1	-32.8
COc1cccc(-n2nnc3c(=O)n(CC(=O)OCc4ccccc4)cnc32)c1	9.39
C/C(=N\NC(=O)c1cc(-c2ccncc2)nc2ccccc12)c1ccc(N2CCOCC2)cc1	7.37
COc1cc(O)c(C(CCN2CCOCC2)c2cc(OC)c(OC)c(OC)c2)c(OC)c1 (stereo not drawn)	8.02
O=C(c1ccccc1F)N1CCN(C(=O)C(c2ccccc2)c2ccccc2)CC1	-14.7
CCN1CCN(C(=S)c2ccc([N+](=O)[O-])cc2)CC1	-36.9
CSc1ncccc1C(=O)N(C)CC(=O)Nc1ccc(Cl)c(C(F)(F)F)c1	12.8
CC1=CC(C)(C)N(C(=O)CSc2ncn[nH]2)c2ccccc21	2.71
Cl.O=C(NC1CCCCC1)NC1CCN(CC(=O)N2CCOCC2)CC1	22.4
Cc1cc(C)c(NC(=O)CNC(=O)Cc2ccc(S(=O)(=O)N3CCOCC3)s2)c(C)c1	-1.76
COc1cc(/C=C2/SC(=O)N(CC(=O)N3CCCC3)C2=O)ccc1Oc1ccc([N+](=O)[O-])cn1	-22.2
O=C(CSc1nc(-c2ccco2)cc(C(F)(F)F)n1)N1CCN(Cc2ccccc2)CC1	-58.8
O=C(CCN1CCN(Cc2ccccc2)CC1)NNC(=O)Nc1cccc([N+](=O)[O-])c1	-32.6
C=CCSc1nc(=O)n2ccccc2n1	9.57
COc1cccc(-c2cc(C(=O)Nc3nc4ccccc4s3)c3ccccc3n2)c1	-13.6

SMILES	hERG current change (%, negative = inhibition) at 10uM [%]
CC(C)(C)OC(=O)[C@H](Cc1ccccc1)NC(=O)c1nc[nH]c1C(=O)NCC(=O)OCc1ccccc1	-1.82
CC1(OC(=O)CCc2ccccc2)C(=O)C=C2C=C(c3ccc(C#N)cc3)N(c3ccccc3)C=C2C1=O (stereo not drawn)	14.3
Cc1ccc(CNC(=O)CN2C(=O)CSc3ccc(S(=O)(=O)N4CCCCC4)cc32)cc1	-47.9
CCCc1cc(=O)[nH]c(SCC(=O)N2CCN(S(=O)(=O)c3ccc(Cl)cc3)CC2)n1	4.81
CCOC(=O)c1c(-c2ccc(OC)cc2)csc1NC(=O)CCN1C(=O)c2ccccc2C1=O	-9.76
COC(=O)[C@@]1(Cc2ccc(F)cc2)[C@@H]2[C@@H](CC(=O)[C@H]2CC(=O)C(=O)N(C)C)CN1C(=O)c1ccccc1	-16.6
CCOc1ccc(NC(=O)CN(C)C(=O)c2ccccc2OCc2c(C)noc2C)cc1OCC	5.25
CC(C)CCn1c(N2CCc3ccccc3C2)nc2c1c(=O)[nH]c(=O)n2C	-2.34
CCCN1C(=O)CC(C(=O)OC)=C1C	12.9
COc1cc(/C=C/C(=O)OCC(=O)Nc2ccc3c(c2)OCCO3)ccc1O	2.9
CS(=O)(=O)N1CCc2cc(C(=O)N3CCOCC3)ccc21	13.8
CCc1nc(SCC(=O)Nc2ccccc2Cl)n[nH]1	17.1
O=C(O)CNS(=O)(=O)c1c(Cl)cccc1Cl	2.98
Nc1nonc1-c1nc2ccccc2n1CC(=O)N/N=C/c1ccc(-c2ccccc2C(=O)O)o1	5.75
COc1cc(OC)cc(C(=O)Nc2cccnc2)c1	14.4
CCOC(=O)c1c(C)oc2ccc(OC(=O)c3cccs3)cc12	-5.96
Cc1cccc(OCCOCCN2CCNCC2)c1C.O=C(O)C(=O)O	-11.2
OC(CCN1CCOCC1)c1ccccc1 (stereo not drawn)	4.54
O=C(CSc1nc2ccccc2s1)N1c2ccccc2Sc2ccc(C(F)(F)F)cc21	5.56
COc1ccc(-c2nnc(SCC(=O)NC(=O)NCc3ccco3)o2)cc1	11.8
CCCN(CC(=O)Nc1ccccc1OC)C(=O)Cc1ccc2c(c1)CCC2	-18.1

SMILES	hERG current change (%, negative = inhibition) at 10uM [%]
O=C(NCc1n[nH]c(=S)n1-c1ccc(Br)cc1)c1ccc(S(=O)(=O)N2CCCC2)cc1	13.7
O=C1NC(=O)N(c2cccc(Cl)c2)C(=O)/C1=C\c1ccc(Sc2nc3ccccc3[nH]2)o1	13.9
CC(=O)c1ccc(N2CCN(C(=O)Nc3ccc(F)cc3)CC2)cc1	-24.5
Nc1c(C(=O)NCC2CCCO2)sc(=S)n1-c1ccccc1 (stereo not drawn)	-1.09
Cc1cccc(C2NC(=O)c3c(sc(C)c3C)N2)c1O (stereo not drawn)	13.9
CN(Cc1ccco1)c1ncnc2ccc(-c3ccc4c(ccn4C)c3)cc12	14.2
COc1ccc(C2=NOC(C)(c3sc(-c4ccc(Cl)cc4)nc3C)C2)cc1 (stereo not drawn)	15.2
O=S(=O)(c1ccc(F)cc1)n1ccc(-c2cnc(-c3ccccc3)s2)n1	-3.22
CCCN(Cc1cc2ccccc2[nH]c1=O)C(=O)c1cccc([N+](=O)[O-])c1	-16.8
CC(C)NC(=O)C(C)N1CCN(S(=O)(=O)c2ccc3ccccc3c2)CC1 (stereo not drawn)	5.36
CC(C)(C)OC(=O)CNC(=O)c1[nH]cnc1C(=O)NCCCCC[NH3+].[Cl-]	9.23
COC(=O)C1=C(c2ccc3ccccc3c2)C[C@@H]2CC[C@H]1N2C(=O)NCc1ccco1	-8.46
Cc1ccc(CSCC(=O)Nc2ccccc2F)cc1	1.59
CCN(CC(=O)Nc1cccc(S(=O)(=O)N2CCCC2)c1)CC(=O)Nc1ccccc1OC	-4.68
O=C(CN1C(=O)NC2(CCCc3ccccc32)C1=O)c1ccc(F)cc1 (stereo not drawn)	-17
COc1cccc(CNS(=O)(=O)c2cc(CN3C(=O)c4cccnc4C3=O)ccc2OC)c1	4.2
O=C(CSCc1ccccc1Cl)N/N=C/c1ccco1	17.2
COCCCNC(=O)Cn1c(=O)n(Cc2ccc(C(=O)NCCc3ccc(OC)c(OC)c3)cc2)c(=O)c2ccccc21	0.0428
Cc1cccc(-n2nnnc2SCn2nnc3ccccc3c2=O)c1	-17.8
O=C(Nc1ccccc1C(=O)NCc1ccco1)c1ccco1	-25
CCN(CC)S(=O)(=O)c1ccc(-c2nnc(SCC(=O)N3CCOCC3)o2)cc1	-5

SMILES	hERG current change (%, negative = inhibition) at 10uM [%]
O=C(COC(=O)/C=C/c1ccc(C(F)(F)F)cc1)NC1CCCC1	15.7
N=C1C(c2nc3ccccc3[nH]2)=C(O)CN1c1ccc(CC(=O)O)cc1	13.3
Cn1c(=O)oc2cc(S(=O)(=O)N3CCCC(C(=O)NCc4ccc5c(c4)OCO5)C3)ccc21 (stereo not drawn)	-5.35
COc1ccc(-c2nc3ccccc3n2OCC(=O)O)cc1	18.5
C=CCN1C(=O)CSc2ccc(C(=O)NC3CCCCC3)cc21	2.93
N=C1/C(=C/c2cccs2)C(=O)N=C2SN=C(SCc3ccccc3)N12	6.75
COc1ccc2nc(Nc3nc(-c4ccncc4)cs3)sc2c1	17.9
Cc1ccc(C(=O)N/N=C\c2sccc2C)cn1	13.2
N#Cc1cn(-c2ccccc2)nc1-c1cc2ccccc2oc1=O	8.72
O=C(COC(=O)c1cncc(Br)c1)NCCC1=CCCCC1	13.3
CCOC(=O)c1ccn(-c2nc(-c3ccco3)cc(C(F)(F)F)n2)n1	-14.5
COc1ccc(CCC(=O)N2CCN(S(=O)(=O)c3cccc(C(F)(F)F)c3)CC2)cc1OC	-29.6
O=C(c1cccs1)N(Cc1cccc(F)c1)C1CCS(=O)(=O)C1 (stereo not drawn)	-14.9
CNC(=O)Cc1nc2ccccc2n1CC(=O)Nc1cc(C)cc(C)c1	27.8
O=C(O)CSc1nc2ccccc2n1C1CCCCC1	15.8
CCOC(=O)c1c(C)[n+](-c2ccc(C)cc2)c(CC)c2cc(OC)c(OC)cc12.[Cl-]	-39.7
Cc1cc(C(=O)CN2C(=O)NC3(CCCc4ccccc43)C2=O)c(C)n1Cc1cccs1 (stereo not drawn)	-1.7
COc1ccc(N2CC(C(=O)Nc3nnc(Cc4ccccc4)s3)CC2=O)cc1 (stereo not drawn)	3.46
Cc1ccc(NC(=S)NN2CCN(C)CC2)cc1	-6.61
CC1Cc2ccccc2N1C(=O)COC(=O)c1cccc(Br)c1 (stereo not drawn)	2.48
CC(C)(C)c1ccccc1OCC(=O)NCCC(=O)O	-7.3
